# Laboratory results as given in the supplement of paper PMC10037445.
# Where “and” joins values, the source holds several entries; their conditions need not be identical. Equal values may be shown once. The full ranking holds about 2,900 compounds; the median of “IRF Lucia reporter activity, fold change vs agonist alone” is about 0.9, and the highest 2% start at about 2.8. The list shows a part of the results.
# How the values were obtained:
# RAW-Dual [1] = assay: IRF Lucia reporter activity, fold change vs agonist alone; higher = enhanced IRF activity; details: library stock concentration (final ~1000-fold dilution): 10 mM, agonist: MPLA (TLR4) […]
# Procedure, shortened: (§1)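 Reporter activity is given as fold change relative to agonist-alone wells. To measure it, 50 nL of library stock was pin-tooled onto RAW-Dual macrophages (50,000 cells/well, DMEM, 384-well plates), a PRR agonist followed 1 h later, and cells stayed at 37 °C, 5% CO2. Twenty hours on, supernatant was assayed for IRF (QuantiLuc luminescence) and NF-κB (QuantiBlue, 620 nm absorbance), and wells under 70% of agonist-control IncuCyte confluency in both mask sets were marked cytotoxic.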
# RAW-Dual [2] = assay: IRF Lucia reporter activity, fold change vs agonist alone; cytotoxicity flag (confluency mask): not cytotoxic; higher = enhanced IRF activity
# Procedure, shortened: as §1
# RAW-Dual [3] = assay: IRF Lucia reporter activity, fold change vs agonist alone; cytotoxicity flag (confluency mask): cytotoxic (confluency <70% of control); higher = enhanced IRF activity
# Procedure, shortened: as §1
# [4] = cytotoxicity flag (confluency mask): not cytotoxic
# [5] = agonist: 3'3'-cGAMP (STING) 10 ug/mL
# [6] = cytotoxicity flag (confluency mask): cytotoxic (confluency <70% of control)
compound,measurement,setting,value
CNC(=O)c1cc(Oc2ccc(NC(=O)Nc3cc(C(C)(C)C)nn3-c3ccc4ncccc4c3)c(F)c2)ccn1,IRF Lucia reporter activity,RAW-Dual [1]; [4],0.95
COc1ccc(CCN(C)CCCC(C#N)(c2ccc(OC)c(OC)c2)C(C)C)cc1OC.Cl (stereo not drawn),IRF Lucia reporter activity,RAW-Dual [1]; [4],1.11
COc1ccc(CCN(C)CCCC(C#N)(c2ccc(OC)c(OC)c2)C(C)C)cc1OC.Cl (stereo not drawn) (library stock concentration (final ~1000-fold dilution): 10 mM),IRF Lucia reporter activity,RAW-Dual [2]; [5],0.616
same,IRF Lucia reporter activity,RAW-Dual [2]; agonist: LPS (TLR4) 0.1 ug/mL,1.1
N#Cc1cc2cc(CN3CCC(Nc4ncnc5sc(CC(F)(F)F)cc45)CC3)ccc2[nH]1 (library stock concentration (final ~1000-fold dilution): 10 mM),IRF Lucia reporter activity,RAW-Dual [2]; [5],0.109
same,IRF Lucia reporter activity,RAW-Dual [2]; agonist: LPS (TLR4) 0.1 ug/mL,0.719
Cc1ccc(=O)n(-c2ccccc2)c1,IRF Lucia reporter activity,RAW-Dual [1]; [4],1.02
Cc1ccc(=O)n(-c2ccccc2)c1 (library stock concentration (final ~1000-fold dilution): 10 mM),IRF Lucia reporter activity,RAW-Dual [2]; [5],1
same,IRF Lucia reporter activity,RAW-Dual [2]; agonist: LPS (TLR4) 0.1 ug/mL,0.939
CC(=O)OCC1OC([S-])C(OC(C)=O)C(OC(C)=O)C1OC(C)=O.CCP(CC)CC.[Au+] (stereo not drawn) (library stock concentration (final ~1000-fold dilution): 10 mM),IRF Lucia reporter activity,RAW-Dual [3]; [5],0.0169
same,IRF Lucia reporter activity,RAW-Dual [3]; agonist: LPS (TLR4) 0.1 ug/mL,0.0188
CC(=O)OCC1OC([S-])C(OC(C)=O)C(OC(C)=O)C1OC(C)=O.CCP(CC)CC.[Au+] (stereo not drawn),IRF Lucia reporter activity,RAW-Dual [1]; [6],0.0231
COC1CC2CCC(C)C(O)(O2)C(=O)C(=O)N2CCCCC2C(=O)OC(C(C)CC2CCC(OP(C)(C)=O)C(OC)C2)CC(=O)C(C)C=C(C)C(O)C(OC)C(=O)C(C)CC(C)C=CC=CC=C1C (stereo not drawn) (library stock concentration (final ~1000-fold dilution): 10 mM),IRF Lucia reporter activity,RAW-Dual [2]; [5],1.03
same,IRF Lucia reporter activity,RAW-Dual [2]; agonist: LPS (TLR4) 0.1 ug/mL,1.6
COC1CC2CCC(C)C(O)(O2)C(=O)C(=O)N2CCCCC2C(=O)OC(C(C)CC2CCC(OP(C)(C)=O)C(OC)C2)CC(=O)C(C)C=C(C)C(O)C(OC)C(=O)C(C)CC(C)C=CC=CC=C1C (stereo not drawn),IRF Lucia reporter activity,RAW-Dual [1]; [4],1.24
Cl.Nc1ccc(N=Nc2ccccc2)c(N)n1,IRF Lucia reporter activity,RAW-Dual [1]; [4],0.989
Cl.Nc1ccc(N=Nc2ccccc2)c(N)n1 (library stock concentration (final ~1000-fold dilution): 10 mM),IRF Lucia reporter activity,RAW-Dual [2]; [5],0.305
same,IRF Lucia reporter activity,RAW-Dual [2]; agonist: LPS (TLR4) 0.1 ug/mL,0.976
CC(C)c1nc(CN(C)C(=O)NC(C(=O)NC(Cc2ccccc2)CC(O)C(Cc2ccccc2)NC(=O)OCc2cncs2)C(C)C)cs1 (stereo not drawn) (library stock concentration (final ~1000-fold dilution): 10 mM),IRF Lucia reporter activity,RAW-Dual [2]; [5],0.757
same,IRF Lucia reporter activity,RAW-Dual [2]; agonist: LPS (TLR4) 0.1 ug/mL,1.34
CC(C)c1nc(CN(C)C(=O)NC(C(=O)NC(Cc2ccccc2)CC(O)C(Cc2ccccc2)NC(=O)OCc2cncs2)C(C)C)cs1 (stereo not drawn),IRF Lucia reporter activity,RAW-Dual [1]; [4],1.07
CCn1c(-c2nonc2N)nc2cnc(Oc3cccc(NC(=O)c4ccc(OCCN5CCOCC5)cc4)c3)cc21.Cl (library stock concentration (final ~1000-fold dilution): 10 mM),IRF Lucia reporter activity,RAW-Dual [2]; [5],0.0316
same,IRF Lucia reporter activity,RAW-Dual [2]; agonist: LPS (TLR4) 0.1 ug/mL,0.297
CCN1CCN(Cc2ccc(C(=O)Nc3ccc(C)c(Oc4ccc5c(c4)CC(=O)N5)c3)cc2C(F)(F)F)CC1 (library stock concentration (final ~1000-fold dilution): 10 mM),IRF Lucia reporter activity,RAW-Dual [3]; [5],0.212
same,IRF Lucia reporter activity,RAW-Dual [3]; agonist: LPS (TLR4) 0.1 ug/mL,0.665
CCN1CCN(Cc2ccc(C(=O)Nc3ccc(C)c(Oc4ccc5c(c4)CC(=O)N5)c3)cc2C(F)(F)F)CC1,IRF Lucia reporter activity,RAW-Dual [1]; [6],0.48
CS(=O)(=O)O.Cc1ccc(N(CC2=NCCN2)c2cccc(O)c2)cc1 (library stock concentration (final ~1000-fold dilution): 10 mM),IRF Lucia reporter activity,RAW-Dual [2]; [5],0.803
same,IRF Lucia reporter activity,RAW-Dual [2]; agonist: LPS (TLR4) 0.1 ug/mL,0.89
CS(=O)(=O)O.Cc1ccc(N(CC2=NCCN2)c2cccc(O)c2)cc1,IRF Lucia reporter activity,RAW-Dual [1]; [4],0.907
CC1=NN(c2ccc(C)c(C)c2)C(=O)/C1=N\Nc1cccc(-c2cccc(C(=O)O)c2)c1O.NCCO.NCCO,IRF Lucia reporter activity,RAW-Dual [1]; [4],1.11
CC1=NN(c2ccc(C)c(C)c2)C(=O)/C1=N\Nc1cccc(-c2cccc(C(=O)O)c2)c1O.NCCO.NCCO (library stock concentration (final ~1000-fold dilution): 10 mM),IRF Lucia reporter activity,RAW-Dual [2]; [5],0.71
same,IRF Lucia reporter activity,RAW-Dual [2]; agonist: LPS (TLR4) 0.1 ug/mL,1.31
CC(=O)OC1CCC2(C)C(=CCC3C2CCC2(C)C(c4cccnc4)=CCC32)C1 (stereo not drawn),IRF Lucia reporter activity,RAW-Dual [1]; [4],1.33
CC(=O)OC1CCC2(C)C(=CCC3C2CCC2(C)C(c4cccnc4)=CCC32)C1 (stereo not drawn) (library stock concentration (final ~1000-fold dilution): 10 mM),IRF Lucia reporter activity,RAW-Dual [2]; [5],0.849
same,IRF Lucia reporter activity,RAW-Dual [2]; agonist: LPS (TLR4) 0.1 ug/mL,0.775
CCOC(=O)/C=C/c1ccc(O)c(O)c1,IRF Lucia reporter activity,RAW-Dual [1]; [4],0.597
CCOC(=O)/C=C/c1ccc(O)c(O)c1 (library stock concentration (final ~1000-fold dilution): 10 mM),IRF Lucia reporter activity,RAW-Dual [2]; [5],0.0622 and 0.0316
same,IRF Lucia reporter activity,RAW-Dual [2]; agonist: LPS (TLR4) 0.1 ug/mL,0.528 and 0.823
NC(=O)c1ccc(OCCCN2CC3CCCC3C2)cc1 (stereo not drawn) (library stock concentration (final ~1000-fold dilution): 10 mM),IRF Lucia reporter activity,RAW-Dual [2]; [5],1.05
same,IRF Lucia reporter activity,RAW-Dual [2]; agonist: LPS (TLR4) 0.1 ug/mL,1.13
O=C(Oc1cc(S(=O)(=O)c2ccccc2)ccc1[N+](=O)[O-])c1ccc(Cl)cc1 (library stock concentration (final ~1000-fold dilution): 10 mM),IRF Lucia reporter activity,RAW-Dual [2]; [5],0.289
same,IRF Lucia reporter activity,RAW-Dual [2]; agonist: LPS (TLR4) 0.1 ug/mL,0.367
O=C(Oc1cc(S(=O)(=O)c2ccccc2)ccc1[N+](=O)[O-])c1ccc(Cl)cc1,IRF Lucia reporter activity,RAW-Dual [1]; [4],0.734
